Structures can show the parent of a compound that is named as a salt. The list shows a part of the results. Many values rest on one well or one pass, so single values are uncertain.
Each molecule was assayed on KB-V1 (assay: growth inhibition relative to DMSO control (SRB); cervical cancer cells: KB-3-1 is the parent and KB-V1 overexpresses MDR1; SRB is the sulforhodamine B stain; higher = more growth inhibition). Settings: 1 µM; 72 h.
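Also: Read-out is SRB optical density at 490 nm, with the control being wells given 0.5% DMSO vehicle, and compound added one day after cells were plated.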

SMILES | growth inhibition
CCOc1cc(N)c(Cl)cc1C(=O)NCC1CN(Cc2ccc(F)cc2)CCO1 (centres undefined) [Mosapride Citrate] | 37.5%
OCCOCCN1CCN(C2=Nc3ccccc3Sc3ccccc32)CC1 [Quetiapine Fumarate] | 24%
O=C(Nc1ccccc1-c1cn2c(CN3CCNCC3)csc2n1)c1cnc2ccccc2n1 | 63.8%
CCOC(=O)OC(C)OC1=C(C(=O)Nc2ccccn2)N(C)S(=O)(=O)c2ccccc21 (centres undefined) [Ampiroxicam] | < 0%

Source: the supplement of paper PMC7266297
